Results taken from the supplement of paper PMC7826260.
This is one part of the list. One pool of 16,384 single-stranded DNAs met each Rep nickase domain in vitro for 1 h at 37 °C with 3 µM enzyme; only the middle of the 90-letter strands is printed. The score is log2 (uncut reads / reads without enzyme); strong cutting gives strongly negative numbers. There is no active / inactive call. Reads are scaled to the total; values above 0 arise when much of the pool is cut.

Key:
Test in all cases: uncleaved DNA left, log2 of reads against the no-enzyme library (log2 ratio); higher = less cleavage (more negative = more Rep cleavage of the k-mer); sequences stand for … in CTCGTCCG…ACCGGAGA
[1] = system: T1, Rep nickase domain of Muscovy duck circovirus
T1 sequence (Rep 1-111, printed without the tag): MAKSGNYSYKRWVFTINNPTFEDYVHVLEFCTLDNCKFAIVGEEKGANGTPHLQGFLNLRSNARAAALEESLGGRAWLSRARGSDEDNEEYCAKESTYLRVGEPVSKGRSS
Description: (§1)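 A pool of 90-nt single-stranded DNAs with seven random bases just before the constant AC of the nick site (name = the seven bases) was cut by 3 µM recombinant His6-SUMO-tagged Rep nickase domain (300 nM DNA, 50 mM HEPES pH 8.0, 50 mM NaCl, 1 mM MnCl2, 1 h, 37 °C, three replicates). Uncut DNA was amplified and sequenced.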

[2] = system: T2, Rep nickase domain of banana bunchy top virus
T2 sequence (Rep 1-94, printed without the tag): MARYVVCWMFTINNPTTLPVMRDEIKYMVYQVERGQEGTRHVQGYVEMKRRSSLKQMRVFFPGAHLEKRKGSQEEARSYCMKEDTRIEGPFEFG
Description: as §1

[3] = system: T3, Rep nickase domain of cabbage leaf curl virus
T3 sequence (Rep 1-116, printed without the tag): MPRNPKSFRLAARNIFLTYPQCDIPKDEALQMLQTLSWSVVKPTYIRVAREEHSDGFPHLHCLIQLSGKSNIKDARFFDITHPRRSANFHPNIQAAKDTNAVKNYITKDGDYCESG
Description: as §1

[4] = system: T4, Rep nickase domain of chickpea chlorotic dwarf virus
T4 sequence (Rep 1-124, printed without the tag): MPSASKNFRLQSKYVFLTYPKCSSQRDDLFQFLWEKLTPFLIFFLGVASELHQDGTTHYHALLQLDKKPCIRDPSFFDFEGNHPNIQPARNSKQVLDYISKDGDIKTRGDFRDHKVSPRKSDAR
Description: as §1

[5] = system: T5, Rep nickase domain of faba bean necrotic yellows virus
T5 sequence (Rep 1-98, printed without the tag): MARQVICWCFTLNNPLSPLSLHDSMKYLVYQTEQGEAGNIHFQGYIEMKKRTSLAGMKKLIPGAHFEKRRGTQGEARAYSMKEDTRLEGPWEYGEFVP
Description: as §1

[6] = system: T6, Rep nickase domain of maize striate mosaic virus
T6 sequence (Rep 1-117, printed without the tag): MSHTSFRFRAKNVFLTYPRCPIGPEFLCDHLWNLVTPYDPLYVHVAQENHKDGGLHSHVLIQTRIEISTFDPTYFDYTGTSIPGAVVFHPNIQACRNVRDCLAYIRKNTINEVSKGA
Description: as §1

[7] = system: T7, Rep nickase domain of porcine circovirus 2
T7 sequence (Rep 2-116, printed without the tag): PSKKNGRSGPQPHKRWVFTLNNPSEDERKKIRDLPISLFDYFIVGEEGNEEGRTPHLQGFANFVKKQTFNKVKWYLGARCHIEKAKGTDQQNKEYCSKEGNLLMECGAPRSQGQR
Description: as §1

[8] = system: T8, Rep nickase domain of tomato golden mosaic virus
T8 sequence (Rep 1-124, printed without the tag): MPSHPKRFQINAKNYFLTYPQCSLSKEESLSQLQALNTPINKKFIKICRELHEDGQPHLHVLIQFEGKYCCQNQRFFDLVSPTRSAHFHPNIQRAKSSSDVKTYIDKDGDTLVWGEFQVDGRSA
Description: as §1

[9] = system: T9, Rep nickase domain of tomato yellow leaf curl virus
T9 sequence (Rep 1-136, printed without the tag): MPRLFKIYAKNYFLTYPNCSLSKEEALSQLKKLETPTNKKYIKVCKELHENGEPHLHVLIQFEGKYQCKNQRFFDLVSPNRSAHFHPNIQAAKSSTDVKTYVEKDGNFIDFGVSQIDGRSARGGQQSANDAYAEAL
Description: as §1

[10] = system: T10, Rep nickase domain of wheat dwarf virus
T10 sequence (Rep 1-137, printed without the tag): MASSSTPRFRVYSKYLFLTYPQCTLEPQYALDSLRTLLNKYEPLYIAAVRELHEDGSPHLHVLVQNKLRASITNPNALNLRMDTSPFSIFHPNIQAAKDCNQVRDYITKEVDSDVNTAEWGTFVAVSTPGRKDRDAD
Description: as §1

Sequence | uncleaved DNA left (log2) [1] | uncleaved DNA left (log2) [2] | uncleaved DNA left (log2) [3] | uncleaved DNA left (log2) [4] | uncleaved DNA left (log2) [5] | uncleaved DNA left (log2) [6] | uncleaved DNA left (log2) [7] | uncleaved DNA left (log2) [8] | uncleaved DNA left (log2) [9] | uncleaved DNA left (log2) [10]
CGCTAAA | -0.0391 | -0.0964 | -0.107 | -0.262 | -0.0498 | -0.561 | -0.129 | -0.107 | -0.0407 | -0.0291
CCAAATC | -0.00797 | 0.00364 | 0.00491 | -0.0242 | -0.0504 | -0.614 | 0.0928 | 0.0453 | 0.0387 | -0.00729
CCTAGAT | 0.0399 | 0.0225 | 0.193 | 0.475 | -0.114 | 0.599 | -0.0286 | 0.178 | -0.205 | 0.0539
ACGATCG | -0.15 | -0.0896 | -0.788 | -0.235 | -0.0796 | -1.02 | 0.0437 | -0.0319 | -0.0457 | -0.066
GTGCCTG | -0.0972 | -0.0603 | -0.0306 | 0.479 | -0.124 | 1.1 | -0.0526 | -0.0772 | -0.165 | -0.103
GTACTAC | -0.333 | 0.0575 | 0.109 | 0.273 | -0.116 | 1.64 | -1.84 | 0.0389 | 0.105 | 0.102
AGGACGC | 0.0205 | 0.0977 | 0.703 | 1.68 | 0.0125 | 1.85 | 0.224 | 0.124 | 0.0492 | 0.101
ATACATC | 0.0854 | 0.0338 | 0.0343 | -0.33 | 0.00107 | -0.951 | 0.152 | -0.00566 | 0.0199 | 0.0175
CATAGGG | 0.0132 | -0.0484 | -0.595 | -0.596 | 0.0354 | -1.16 | 0.0603 | 0.0276 | 0.0271 | -0.177
TAATGAC | 0.187 | 0.0293 | -3.31 | -2.39 | 0.0717 | -0.84 | 0.136 | -0.276 | 0.0686 | -0.462
ATAGGAT | 0.196 | 0.0329 | 0.293 | 1.68 | -0.0254 | 1.88 | 0.192 | 0.0962 | -0.107 | 0.077
GCGACGG | -0.038 | 0.0198 | 0.0741 | 0.678 | -0.0465 | 1.73 | 0.115 | 0.13 | 0.031 | 0.0107
GCTGTAG | -0.0294 | 0.188 | -0.632 | -0.394 | 0.118 | -0.879 | 0.106 | -0.0101 | 0.0658 | -0.18
GAGTGAC | 0.00189 | 0.108 | 0.353 | 1.42 | -0.0427 | 1.8 | 0.0656 | 0.0989 | 0.102 | 0.179
CGAGATC | 0.0642 | 0.16 | 0.303 | 0.334 | 0.174 | 0.0296 | 0.121 | 0.081 | 0.00139 | 0.105
